Results as given in PubChem BioAssay AID1508623 (National Center for Advancing Translational Sciences (NCATS), 2021).
Out of some 48,000 compounds screened, about 450 (0.94%) were called active. Inconclusive results (about 19%) are left out. The call rests on the fitted dose curve; in most records, active means well fitted inhibition curve with a large enough effect; inconclusive means small, poorly fitted or top-dose-only effect; inactive means no such curve, though single readings can be large or run the other way. The list shows a part of the results.

Test: Primary qHTS for Identification of Small Molecule Inhibitors of Huntingtin Promoter Activity; further: nearly all actives have a fitted effect of over 50% in size
Conditions: HEK293 HTT promoter firefly luciferase reporter (activity 0% = vehicle and -100% = no light), 24 h; series mostly up to 57.5 µM; activity change, negative = inhibition: at the top concentration
Summary of the method: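 Firefly luciferase readout (Dual-Glo, 10 min RT) after 24 h, 37 °C compound exposure (final up to 57.5 uM) of HEK293 reporter cells cultured 24 h beforehand; PTC124 at 50 uM final as control inhibitor; activity scaled vehicle 0%, zero RLU -100%.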

SMILES	activity change, negative = inhibition
Clc1cccc(N2CCN(c3nc4ccccc4c4nc(-c5ccccc5)nn34)CC2)c1	inactive: -7.77%
Cc1cc(C)cc(NC(=O)Cn2c(=O)n(CCC(C)C)c(=O)c3cccnc32)c1	inactive: 9.71%
CCc1ccc2oc(C(=O)N(Cc3cccc(Cl)c3)Cc3ccco3)c(C)c2c1	inactive: -26.3%
Cn1c(=O)cc(SCC(=O)NCCc2ccc(Cl)cc2)c2cc(Cl)ccc21	inactive: -12.4%
COc1cccc(CNC(=O)CCCn2c(=O)c3cccn3c3ccc(F)cc32)c1OC	inactive: -4.08%
COc1ccc(-c2cc(C(C)=O)c(C)n2CCC(=O)Nc2cccc(C)c2C)cc1	inactive: -22%
O=C(CSc1nc2ccccc2c2nc(-c3ccccc3)nn12)Nc1ccc(F)cc1	inactive: -14.9%
O=C(Cn1c2ncccc2c(=O)n1-c1ccccc1)Nc1cccc(C(F)(F)F)c1	inactive: -38.1%
CCc1nnc(SC(CC)C(=O)NCCOC)c2cc3occc3n12 (stereo not drawn)	inactive: -1.65%
CCc1cccc(NC(=O)Cn2c(=O)n(Cc3ccccc3)c(=O)c3c(C)c(C(=O)N(C)C)sc32)c1	inactive: -3.93%
CN1CCN(C(=O)c2cnn(-c3ccccc3)c2C2CCN(C(=O)OC(C)(C)C)CC2)CC1	inactive: -11.5%
Cc1ccc(C)c(NC(=O)Cn2cc(S(=O)(=O)N3CCCC3)c(S(=O)(=O)N3CCCC3)c2)c1	inactive: 5.78% [at 11.5 µM]
Cc1cccc(NC(=O)CSc2nc(C)cc(C)c2C(=O)Nc2ccc(Cl)cc2)c1	inactive: -27%
COc1ccc(Cl)cc1NC(=O)c1cc(=O)c2cc(C)cc(C)c2o1	inactive: 8.8% [at 11.5 µM]
CCc1ccc2c(c1)c(=O)c(S(=O)(=O)c1ccccc1)cn2CC(=O)Nc1cc(C)ccc1C	inactive: -17.8%
COc1cc(NC(=O)CN(C)S(=O)(=O)c2ccc3c(c2)CCCC(=O)N3)cc(OC)c1OC	inactive: -25.2%
COc1ccc(-c2nc3ccccc3o2)cc1NC(=O)COc1c(C)cc(Cl)cc1Cl	inactive: 17.1%
Cc1ccc(CCNC(=O)Cn2ncc3c(=O)oc4ccccc4c32)cc1	inactive: -18.2%
CCN(CC)CCCC(C)Nc1nc(C)cc(Nc2ccc3nc(C)cc(N)c3c2)n1 (stereo not drawn)	inactive: 12.9%
CC(C)(C)OC(=O)N1CCC(c2c(C(=O)N3CCN(c4ccccc4F)CC3)cnn2C(C)(C)C)CC1	inactive: -24.8%
CCOC(=O)C1CCN(c2csc3ccc(C)cc3c2=O)CC1	inactive: -9.68%
COC(=O)c1cc2sc(C)cc2n1Cc1nc(-c2cccc(Br)c2)oc1C	inactive: -16.5%
CCOC(=O)c1[nH]c(C)c(CCC(=O)N2CCN(c3cccc(OC)c3)CC2)c1C	inactive: -19.7%
Cc1ccc(-c2noc(-c3ccccc3NC(=O)c3ccccc3)n2)cc1	inactive: 39.8%

SMILES	activity change, negative = inhibition
CCOc1ccc(NC(=O)Cn2ncc3c2-c2cc(C)ccc2OC3)cc1	inactive: -22.4%
CCC(=O)N1CCc2cc(Br)cc(S(=O)(=O)CCC(=O)NCc3ccccc3OC)c21	inactive: -20.5%
COc1ccc(CCNC(=O)C(=O)Nc2ccccc2F)cc1	inactive: 14.8%
Cc1ccc(CNC(=O)C(=O)Nc2c3c(nn2-c2ccccc2)CSC3)cc1	inactive: -23%
O=C(NCc1ccccc1)c1ccc(CNS(=O)(=O)c2ccc(Br)cc2)cc1	inactive: -18%
COc1ccccc1CNS(=O)(=O)c1ccc2c(c1)CC(C)N2C(C)=O (stereo not drawn)	inactive: -20.1%
CC1CCN(S(=O)(=O)c2ccc3c(c2)N(CC(=O)NC(C)c2ccccc2)C(=O)CS3)CC1 (stereo not drawn)	inactive: -25.8%
Cc1ccc(C)c(N2CCN(S(=O)(=O)c3ccc4[nH]c5c(c4c3)CCCCC5)CC2)c1	inactive: -25.9%
CC(C)Cn1cc(NC(=O)N2CCN(c3cccc(Cl)c3)CC2)c2ccccc2c1=O	inactive: -21.5%
CCc1ccc(NC(=O)N2CCOc3ccc(Cl)cc32)cc1	inactive: 33%
COc1cc(Cl)c(S(=O)(=O)NCCc2c(C)[nH]c3c(C)cccc23)cc1Cl	inactive: -17.3%
CCCn1c(=O)c2[nH]c(-c3cnn(Cc4cccc(C(F)(F)F)c4)c3)nc2n(CC)c1=O	inactive: 4.18%
O=C(O)c1cc(=O)c2ccccc2o1	inactive: -1.88%
Cc1cc(C)c(NC(=O)c2cc(S(=O)(=O)N3CCC4(CC3)OCCO4)ccc2F)c(C)c1	inactive: -20.1%
COC(=O)c1ccc(C2c3c(-c4ccccc4O)n[nH]c3C(=O)N2Cc2cccnc2)cc1 (stereo not drawn)	inactive: -9.16%
CCN(CCCNC(=O)Cn1ncc2c3ccccc3n(C)c2c1=O)Cc1ccccc1	inactive: 9.86%
CC1CCCN(C(=O)CSc2c3c(nc4cc(Cl)ccc24)CCCC3)C1 (stereo not drawn)	inactive: -14%
O=C(Nc1cc(-c2nc3cc(Cl)ccc3o2)ccc1Cl)c1ccco1	inactive: 53.1%
CCc1ccc(NC(=O)CSc2nc(=O)n(Cc3ccccn3)c3c2CCC3)cc1	inactive: -0.249%
COc1cccc(C2C(C(=O)Nc3ccc(C)cc3C)=C(C)Nc3c(C(=O)Nc4ccccc4)cnn32)c1 (stereo not drawn)	inactive: -19.5%
NS(=O)(=O)c1cc(C(=O)O)c(NCc2ccco2)cc1Cl	inactive
COc1ccc(NC(=O)c2cc(S(=O)(=O)N3CCOCC3)ccc2OC)cc1	inactive: -14.6%
CCc1cccc(C)c1NS(=O)(=O)c1c(C(=O)N2CCC(C)CC2)c(C)n(C)c1C	inactive: -26.2%
COc1ccc(OC)c(NS(=O)(=O)c2ccc3c(c2)C(C)(C)C(=O)N3C)c1	inactive: -0.336%
